Experimental data as given in article PMC5679146.
No constants are given. Whether binding was seen depends on the method and setting. For some assays here: In cells and extracts the contact can be indirect. Some results given as binding are weak or reduced against the parent protein; the word gives no strength. For some assays here: Tags and fused reporters may be left off the sequences shown.

Amino acid sequences for entries named in this document (tags omitted).
UniProt P63101: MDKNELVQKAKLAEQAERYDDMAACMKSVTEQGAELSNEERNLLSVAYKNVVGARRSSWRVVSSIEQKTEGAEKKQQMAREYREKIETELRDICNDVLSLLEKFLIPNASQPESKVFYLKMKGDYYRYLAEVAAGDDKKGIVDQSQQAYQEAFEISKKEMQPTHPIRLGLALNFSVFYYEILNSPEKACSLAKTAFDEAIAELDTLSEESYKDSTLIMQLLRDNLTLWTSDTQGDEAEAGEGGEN
UniProt P62259: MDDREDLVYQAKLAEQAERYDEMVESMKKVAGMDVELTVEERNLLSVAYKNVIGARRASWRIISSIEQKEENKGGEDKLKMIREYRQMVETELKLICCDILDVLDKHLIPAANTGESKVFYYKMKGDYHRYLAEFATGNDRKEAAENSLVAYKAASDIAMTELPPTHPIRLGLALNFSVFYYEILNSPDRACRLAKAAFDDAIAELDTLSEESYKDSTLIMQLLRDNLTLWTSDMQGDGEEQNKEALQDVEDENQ

Legend:
[1] = target: T1, BD/mBest1 (full-length Best1 in pGBKT7) (mouse) (UniProt O88870); test: two-hybrid; full-length cDNAs; BD/mBest1 (pGBKT7) and AD/14-3-3γ (pGADT7) co-transformed into yeast AH109; growth under TLH- conditions; called membrane Y2H in the results
T1 sequence: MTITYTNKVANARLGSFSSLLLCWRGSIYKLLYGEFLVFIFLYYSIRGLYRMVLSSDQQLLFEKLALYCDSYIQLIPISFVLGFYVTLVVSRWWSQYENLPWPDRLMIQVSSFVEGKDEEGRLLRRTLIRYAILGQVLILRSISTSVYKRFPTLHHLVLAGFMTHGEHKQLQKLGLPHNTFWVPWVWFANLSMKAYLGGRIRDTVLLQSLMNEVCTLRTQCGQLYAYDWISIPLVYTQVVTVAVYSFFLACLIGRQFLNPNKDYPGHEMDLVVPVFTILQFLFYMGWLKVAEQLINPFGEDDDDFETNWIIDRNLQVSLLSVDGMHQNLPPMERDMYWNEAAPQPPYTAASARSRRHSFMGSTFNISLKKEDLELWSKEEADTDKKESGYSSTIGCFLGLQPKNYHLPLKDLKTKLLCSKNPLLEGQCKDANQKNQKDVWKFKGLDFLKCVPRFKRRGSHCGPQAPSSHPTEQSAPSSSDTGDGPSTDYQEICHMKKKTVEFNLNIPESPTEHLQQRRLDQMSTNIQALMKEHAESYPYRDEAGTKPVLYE

Flag–14-3-3γ (mouse) = target: T2, Flag–14-3-3γ (mouse) (UniProt P61982); test: co-IP; Flag-14-3-3γ and GFP-Best1 co-expressed in COS7 cells; lysis in 50 mM Tris-HCl pH 7.4, 150 mM NaCl, 5 mM EDTA, 1% NP-40; immunoprecipitated with anti-Flag, blotted with anti-GFP
T2 sequence: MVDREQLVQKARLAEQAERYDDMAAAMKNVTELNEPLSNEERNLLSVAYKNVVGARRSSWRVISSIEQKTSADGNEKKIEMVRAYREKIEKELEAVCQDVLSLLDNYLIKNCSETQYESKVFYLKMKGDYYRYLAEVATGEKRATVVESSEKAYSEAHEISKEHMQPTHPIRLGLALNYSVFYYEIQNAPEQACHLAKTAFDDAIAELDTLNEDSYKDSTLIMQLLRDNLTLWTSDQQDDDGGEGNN

HA–14-3-3β = target: T3, HA–14-3-3β (UniProt Q9CQV8); test: co-IP; HA-tagged 14-3-3 isoform and GFP-Best1 (WT or S358A) co-expressed in COS7 cells; whole lysate immunoprecipitated with anti-HA, blotted with anti-GFP
T3 sequence: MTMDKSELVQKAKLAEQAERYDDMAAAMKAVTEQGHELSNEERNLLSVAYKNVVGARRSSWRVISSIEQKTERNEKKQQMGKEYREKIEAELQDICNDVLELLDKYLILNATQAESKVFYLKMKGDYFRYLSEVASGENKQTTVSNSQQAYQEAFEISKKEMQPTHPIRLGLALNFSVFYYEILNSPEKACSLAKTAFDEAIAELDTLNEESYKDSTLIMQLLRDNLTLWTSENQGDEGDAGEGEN

HA–14-3-3σ = target: T4, HA–14-3-3σ (UniProt O70456); test: as above
T4 sequence: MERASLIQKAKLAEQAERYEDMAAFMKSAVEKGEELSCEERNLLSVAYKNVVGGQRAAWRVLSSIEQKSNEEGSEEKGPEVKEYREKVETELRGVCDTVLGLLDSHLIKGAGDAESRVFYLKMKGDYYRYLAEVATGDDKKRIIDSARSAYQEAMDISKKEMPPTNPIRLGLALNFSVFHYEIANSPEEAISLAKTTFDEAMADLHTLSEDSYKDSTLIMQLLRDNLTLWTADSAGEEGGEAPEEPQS

HA–14-3-3η = target: T5, HA–14-3-3η (UniProt P68510); test: as above
T5 sequence: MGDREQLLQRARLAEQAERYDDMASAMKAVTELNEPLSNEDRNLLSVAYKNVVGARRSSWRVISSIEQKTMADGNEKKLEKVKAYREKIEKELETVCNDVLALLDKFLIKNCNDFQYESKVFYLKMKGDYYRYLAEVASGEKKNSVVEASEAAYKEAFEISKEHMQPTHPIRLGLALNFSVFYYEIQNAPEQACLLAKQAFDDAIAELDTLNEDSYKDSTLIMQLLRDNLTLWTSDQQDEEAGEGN

HA–14-3-3ζ = HA–14-3-3ζ (UniProt P63101); test: as above
HA–14-3-3τ = target: T6, HA–14-3-3τ (UniProt P68254); test: as above
T6 sequence: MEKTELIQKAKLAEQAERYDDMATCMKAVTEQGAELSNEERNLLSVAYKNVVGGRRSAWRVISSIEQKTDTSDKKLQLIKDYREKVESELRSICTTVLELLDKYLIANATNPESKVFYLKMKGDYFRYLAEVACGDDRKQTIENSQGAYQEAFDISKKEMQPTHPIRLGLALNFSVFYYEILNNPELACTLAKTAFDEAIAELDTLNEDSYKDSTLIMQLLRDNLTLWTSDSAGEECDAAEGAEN

HA–14-3-3γ (mouse) [2] = target: T7, HA–14-3-3γ (mouse) (UniProt P61982); test: as above
T7 sequence: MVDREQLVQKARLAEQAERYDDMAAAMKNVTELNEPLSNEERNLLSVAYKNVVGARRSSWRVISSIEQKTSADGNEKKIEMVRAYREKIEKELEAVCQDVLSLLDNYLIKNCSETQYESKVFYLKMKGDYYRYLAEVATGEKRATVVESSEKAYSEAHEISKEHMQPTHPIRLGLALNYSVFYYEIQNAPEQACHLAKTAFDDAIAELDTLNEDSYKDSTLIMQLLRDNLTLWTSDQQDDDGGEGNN

HA–14-3-3ϵ = HA–14-3-3ϵ (UniProt P62259); test: as above
HA–14-3-3γ (mouse) [3] = target: T7, HA–14-3-3γ (mouse); test: co-IP; HA-14-3-3γ with GFP-Best1-C1, -C2 or -C3 in COS7 cells; legend: IP anti-HA, blot anti-GFP; text: IP anti-GFP, blot anti-HA
VN-14-3-3γ (mouse) = target: T8, VN-14-3-3γ (mouse) (UniProt P61982); test: split reporter; BiFC with split Venus (VN173/VC155) in co-transfected HEK293T cells, fixed, confocal microscopy
T8 sequence: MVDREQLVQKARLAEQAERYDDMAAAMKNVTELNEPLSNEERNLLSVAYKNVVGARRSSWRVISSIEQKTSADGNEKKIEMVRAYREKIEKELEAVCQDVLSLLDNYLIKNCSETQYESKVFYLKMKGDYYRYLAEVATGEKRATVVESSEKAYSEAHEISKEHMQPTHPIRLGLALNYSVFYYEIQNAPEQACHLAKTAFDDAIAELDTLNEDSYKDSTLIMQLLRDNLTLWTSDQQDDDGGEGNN

B1: AD/14–3-3γ (full-length mouse 14–3-3γ in pGADT7) (protein, UniProt P61982 1-247)
chain: MVDREQLVQKARLAEQAERYDDMAAAMKNVTELNEPLSNEERNLLSVAYKNVVGARRSSWRVISSIEQKTSADGNEKKIEMVRAYREKIEKELEAVCQDVLSLLDNYLIKNCSETQYESKVFYLKMKGDYYRYLAEVATGEKRATVVESSEKAYSEAHEISKEHMQPTHPIRLGLALNYSVFYYEIQNAPEQACHLAKTAFDDAIAELDTLNEDSYKDSTLIMQLLRDNLTLWTSDQQDDDGGEGNN
binding [1]: binds

B2: GFP–mBest1 (protein, UniProt O88870 1-551)
chain: MTITYTNKVANARLGSFSSLLLCWRGSIYKLLYGEFLVFIFLYYSIRGLYRMVLSSDQQLLFEKLALYCDSYIQLIPISFVLGFYVTLVVSRWWSQYENLPWPDRLMIQVSSFVEGKDEEGRLLRRTLIRYAILGQVLILRSISTSVYKRFPTLHHLVLAGFMTHGEHKQLQKLGLPHNTFWVPWVWFANLSMKAYLGGRIRDTVLLQSLMNEVCTLRTQCGQLYAYDWISIPLVYTQVVTVAVYSFFLACLIGRQFLNPNKDYPGHEMDLVVPVFTILQFLFYMGWLKVAEQLINPFGEDDDDFETNWIIDRNLQVSLLSVDGMHQNLPPMERDMYWNEAAPQPPYTAASARSRRHSFMGSTFNISLKKEDLELWSKEEADTDKKESGYSSTIGCFLGLQPKNYHLPLKDLKTKLLCSKNPLLEGQCKDANQKNQKDVWKFKGLDFLKCVPRFKRRGSHCGPQAPSSHPTEQSAPSSSDTGDGPSTDYQEICHMKKKTVEFNLNIPESPTEHLQQRRLDQMSTNIQALMKEHAESYPYRDEAGTKPVLYE
binding (Flag–14-3-3γ (mouse)): binds
binding (HA–14-3-3β): no binding
binding (HA–14-3-3σ): no binding
binding (HA–14-3-3η): no binding
binding (HA–14-3-3ζ): no binding
binding (HA–14-3-3τ): no binding
binding (HA–14-3-3γ (mouse) [2]): binds
binding (HA–14-3-3ϵ): no binding

B3: GFP-Best1-C1 (domain or fragment, UniProt O88870 292-380)
chain: EQLINPFGEDDDDFETNWIIDRNLQVSLLSVDGMHQNLPPMERDMYWNEAAPQPPYTAASARSRRHSFMGSTFNISLKKEDLELWSKEE
binding (HA–14-3-3γ (mouse) [3]): binds

B4: Best1-WT-VC (protein, UniProt O88870 1-551)
chain: MTITYTNKVANARLGSFSSLLLCWRGSIYKLLYGEFLVFIFLYYSIRGLYRMVLSSDQQLLFEKLALYCDSYIQLIPISFVLGFYVTLVVSRWWSQYENLPWPDRLMIQVSSFVEGKDEEGRLLRRTLIRYAILGQVLILRSISTSVYKRFPTLHHLVLAGFMTHGEHKQLQKLGLPHNTFWVPWVWFANLSMKAYLGGRIRDTVLLQSLMNEVCTLRTQCGQLYAYDWISIPLVYTQVVTVAVYSFFLACLIGRQFLNPNKDYPGHEMDLVVPVFTILQFLFYMGWLKVAEQLINPFGEDDDDFETNWIIDRNLQVSLLSVDGMHQNLPPMERDMYWNEAAPQPPYTAASARSRRHSFMGSTFNISLKKEDLELWSKEEADTDKKESGYSSTIGCFLGLQPKNYHLPLKDLKTKLLCSKNPLLEGQCKDANQKNQKDVWKFKGLDFLKCVPRFKRRGSHCGPQAPSSHPTEQSAPSSSDTGDGPSTDYQEICHMKKKTVEFNLNIPESPTEHLQQRRLDQMSTNIQALMKEHAESYPYRDEAGTKPVLYE
binding (VN-14-3-3γ (mouse)): binds

B5: GFP-Best1-C2 (domain or fragment, UniProt O88870 381-470)
chain: ADTDKKESGYSSTIGCFLGLQPKNYHLPLKDLKTKLLCSKNPLLEGQCKDANQKNQKDVWKFKGLDFLKCVPRFKRRGSHCGPQAPSSHP
binding (HA–14-3-3γ (mouse) [3]): no binding

B6: GFP-Best1-C3 (domain or fragment, UniProt O88870 471-551)
chain: TEQSAPSSSDTGDGPSTDYQEICHMKKKTVEFNLNIPESPTEHLQQRRLDQMSTNIQALMKEHAESYPYRDEAGTKPVLYE
binding (HA–14-3-3γ (mouse) [3]): no binding

B7: Best1-S358A-VC (protein, UniProt O88870 1-551)
chain: MTITYTNKVANARLGSFSSLLLCWRGSIYKLLYGEFLVFIFLYYSIRGLYRMVLSSDQQLLFEKLALYCDSYIQLIPISFVLGFYVTLVVSRWWSQYENLPWPDRLMIQVSSFVEGKDEEGRLLRRTLIRYAILGQVLILRSISTSVYKRFPTLHHLVLAGFMTHGEHKQLQKLGLPHNTFWVPWVWFANLSMKAYLGGRIRDTVLLQSLMNEVCTLRTQCGQLYAYDWISIPLVYTQVVTVAVYSFFLACLIGRQFLNPNKDYPGHEMDLVVPVFTILQFLFYMGWLKVAEQLINPFGEDDDDFETNWIIDRNLQVSLLSVDGMHQNLPPMERDMYWNEAAPQPPYTAASARSRRHAFMGSTFNISLKKEDLELWSKEEADTDKKESGYSSTIGCFLGLQPKNYHLPLKDLKTKLLCSKNPLLEGQCKDANQKNQKDVWKFKGLDFLKCVPRFKRRGSHCGPQAPSSHPTEQSAPSSSDTGDGPSTDYQEICHMKKKTVEFNLNIPESPTEHLQQRRLDQMSTNIQALMKEHAESYPYRDEAGTKPVLYE
binding (VN-14-3-3γ (mouse)): no binding
